{"source": "PubChem BioAssay (NCI)", "experiment_in_all_cases": "NCI-60 cell line screen, 48 h", "key": {"HL-60(TB) leukemia": {"tested_on": "HL-60(TB) leukemia"}, "MCF7 breast": {"tested_on": "MCF7 breast"}, "SK-MEL-2 melanoma": {"tested_on": "SK-MEL-2 melanoma"}, "SNB-75 CNS": {"tested_on": "SNB-75 CNS"}, "IGROV1 ovarian": {"tested_on": "IGROV1 ovarian"}, "U251 CNS": {"tested_on": "U251 CNS"}, "HCC-2998 colon": {"tested_on": "HCC-2998 colon"}, "HOP-62 NSCLC": {"tested_on": "HOP-62 NSCLC"}, "SK-OV-3 ovarian": {"tested_on": "SK-OV-3 ovarian"}, "CAKI-1 renal": {"tested_on": "CAKI-1 renal"}, "TK-10 renal": {"tested_on": "TK-10 renal"}, "PC-3 prostate": {"tested_on": "PC-3 prostate"}, "NCI/ADR-RES ovarian": {"tested_on": "NCI/ADR-RES ovarian"}, "SF-539 CNS": {"tested_on": "SF-539 CNS"}, "SK-MEL-5 melanoma": {"tested_on": "SK-MEL-5 melanoma"}}, "note": "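Exposure lasted 48 hours, with cells grown in 96-well plates and compounds tested at five concentrations. GI50 is the concentration that inhibits growth by half.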 Certain results were filed several times, with different values. This list holds those alone. An entry can have further records. For part of these data: The records of an entry are repeats in other runs, samples, wells, individuals or studies. What stands in brackets tells the records apart. A, B and so on number the origins entry by entry.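 TGI: concentration producing complete growth inhibition.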 For part of these data: The tests behind the records often covered other concentration ranges, not given here; some values may only mark the edge of a range."}
{"smiles": "CC(=O)O[C@H]1C(=O)[C@@]2(C)[C@H]([C@H](OC(=O)c3ccccc3)[C@]3(O)C[C@H](OC(=O)[C@H](O)[C@@H](NC(=O)c4ccoc4)c4ccccc4)C(C)=C1C3(C)C)[C@]1(OC(C)=O)CO[C@@H]1C[C@@H]2O", "values": [{"measurement": "TGI", "setting": "HL-60(TB) leukemia", "value": "46.4 nM and > 100 µM"}, {"measurement": "TGI", "setting": "MCF7 breast", "value": "387 nM and > 100 µM"}, {"measurement": "TGI", "setting": "SK-MEL-2 melanoma", "value": "94.8 nM and > 100 µM"}, {"measurement": "TGI", "setting": "SNB-75 CNS", "value": "51.9 nM and > 100 µM"}, {"measurement": "TGI", "setting": "IGROV1 ovarian", "value": "607 nM and > 100 µM"}, {"measurement": "TGI", "setting": "U251 CNS", "value": "66.4 nM and 11.7 µM"}, {"measurement": "TGI", "setting": "HCC-2998 colon", "value": "139 nM and > 100 µM"}]}
{"smiles": "CO/N=C/C=C\\C(=O)N/C=C/C[C@H]1/C=C/[C@H](O)/C=C\\C=C\\c2cccc(O)c2C(=O)O1", "values": [{"measurement": "TGI", "setting": "HL-60(TB) leukemia", "value": "7.8 µM [sample A, mean of 2 tests] and 508 nM [sample B, mean of 2 tests]"}, {"measurement": "TGI", "setting": "HOP-62 NSCLC", "value": "> 100 µM [sample A, mean of 2 tests] and 7.76 µM [sample B, mean of 2 tests]"}, {"measurement": "GI50", "setting": "SNB-75 CNS", "value": "3.62 µM [sample A, 1 test] and 23.9 nM [sample B, mean of 2 tests]"}, {"measurement": "TGI", "setting": "SNB-75 CNS", "value": "> 100 µM [sample A, 1 test] and 521 nM [sample B, mean of 2 tests]"}, {"measurement": "GI50", "setting": "SK-OV-3 ovarian", "value": "15.1 µM [sample A, mean of 2 tests] and 44.7 nM [sample B, 1 test]"}, {"measurement": "TGI", "setting": "CAKI-1 renal", "value": "> 32.7 µM [sample A, mean of 2 tests] and 181 nM [sample B, mean of 2 tests]"}, {"measurement": "GI50", "setting": "TK-10 renal", "value": "9.24 µM [sample A, mean of 2 tests] and 228 nM [sample B, mean of 2 tests]"}]}
{"smiles": "Cc1ccnc2[nH]c(-c3cccc4ccccc34)cc(=O)c12", "values": [{"measurement": "TGI", "setting": "PC-3 prostate", "value": "398 nM and > 100 µM"}, {"measurement": "TGI", "setting": "NCI/ADR-RES ovarian", "value": "48.6 nM and > 100 µM"}, {"measurement": "TGI", "setting": "SF-539 CNS", "value": "64.8 nM and > 100 µM"}, {"measurement": "TGI", "setting": "SK-MEL-2 melanoma", "value": "6.83 nM and 34.6 µM"}, {"measurement": "TGI", "setting": "SK-OV-3 ovarian", "value": "617 nM and 28.8 µM"}, {"measurement": "TGI", "setting": "SK-MEL-5 melanoma", "value": "14.4 nM and 2.88 µM"}, {"measurement": "TGI", "setting": "U251 CNS", "value": "479 nM and > 100 µM"}]}
